Measurements taken from PubChem BioAssay AID488969 (Vanderbilt High Throughput Screening Facility, 2010).
In all, about 110,000 compounds were measured (“z-score”: median about -0.1, highest 2% from about 2 on). This is one part of the list.

What follows are compounds tested against Metabotropic glutamate receptor 8 (Rattus norvegicus) (UniProt P70579) (assay: rat mGluR8 modulators via GIRK flux, primary screen, cell-based, thallium flux, HTS (AID 488969)). Conditions: HEK293 rat mGluR8, GIRK (G protein-gated inwardly rectifying potassium channel) thallium flux, FluoZin2; at 10 µM; stronger effect = higher value; submaximal glutamate (EC20) added with thallium.
Chain of UniProt P70579 (P70579 whole entry, looked up): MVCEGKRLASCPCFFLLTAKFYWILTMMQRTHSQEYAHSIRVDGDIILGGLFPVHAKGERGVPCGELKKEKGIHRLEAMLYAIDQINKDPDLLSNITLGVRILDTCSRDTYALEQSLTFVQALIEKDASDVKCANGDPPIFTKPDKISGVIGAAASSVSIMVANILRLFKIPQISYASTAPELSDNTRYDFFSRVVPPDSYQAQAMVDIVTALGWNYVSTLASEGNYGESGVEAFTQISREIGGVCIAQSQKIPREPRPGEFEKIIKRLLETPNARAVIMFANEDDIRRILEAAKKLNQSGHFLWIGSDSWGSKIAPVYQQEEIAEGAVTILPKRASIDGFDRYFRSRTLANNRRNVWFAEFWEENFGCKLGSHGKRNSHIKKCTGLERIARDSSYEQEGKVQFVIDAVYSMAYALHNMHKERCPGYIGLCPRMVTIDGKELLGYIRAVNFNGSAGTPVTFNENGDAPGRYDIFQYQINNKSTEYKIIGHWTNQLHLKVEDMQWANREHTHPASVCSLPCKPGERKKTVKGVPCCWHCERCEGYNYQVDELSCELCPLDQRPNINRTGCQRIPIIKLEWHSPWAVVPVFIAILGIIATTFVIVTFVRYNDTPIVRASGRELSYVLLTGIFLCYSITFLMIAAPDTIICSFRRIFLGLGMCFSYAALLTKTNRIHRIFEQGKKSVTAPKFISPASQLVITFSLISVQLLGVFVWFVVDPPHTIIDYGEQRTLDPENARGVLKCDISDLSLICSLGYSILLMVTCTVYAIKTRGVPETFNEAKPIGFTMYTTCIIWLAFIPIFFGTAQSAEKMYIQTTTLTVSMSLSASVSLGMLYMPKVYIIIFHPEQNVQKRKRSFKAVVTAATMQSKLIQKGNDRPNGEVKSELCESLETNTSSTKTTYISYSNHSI

`CC1(c2ccco2)NC(=O)NC1=O` (centres undefined) was tested. Which z-score did it give?
The z-score was 0.122.

How did the z-score turn out when `Cc1ccc(NC(=S)NCc2ccccc2Cl)c(C)c1` was run?
The z-score was -0.0423.

For `O=C(COc1cccnc1[N+](=O)[O-])N1CCN(S(=O)(=O)c2ccc3ccccc3c2)CC1`, which z-score is on record?
The z-score was -0.206.

For `CCOC(=O)NC1(C(F)(F)F)NC(=O)N(C2CCCCC2)C1=O` (centres undefined), which z-score is on record?
The z-score was 2.9.

With `O=C(C1=C(O)C(=O)N(Cc2ccco2)C1c1ccccc1)c1cccs1` (centres undefined) as the compound, how does the z-score read?
Its z-score is -0.817.

How did the z-score turn out when `OCCCn1c(-c2ccccc2)nc(=S)c2c1CCCC2` was run?
Its z-score is -0.0555.

Which z-score does the source give for `COc1ccc(Cn2c(O)c(C=Nc3ccc(O)cc3)c3ccccc3c2=O)cc1` here?
Its z-score is 0.122.

How did the z-score turn out when `COC(=O)CNS(=O)(=O)c1ccc(Cc2ccc(S(=O)(=O)NCC(=O)OC)cc2)cc1` was run?
Its z-score is -0.0451.

How did the z-score turn out when `O=C(O)CNC(=O)CC12CC3CC(CC(C3)C1)C2` was run?
Its z-score is -0.191.

For `Cc1cc(C)cc(N2CN=c3s/c(=C\c4ccco4)c(=O)n3C2)c1`, which z-score is on record?
The z-score was -0.0387.

With `Cc1ccc(NC(=O)CN(C)C(=O)CCOc2ccccc2C)cc1` as the compound, how does the z-score read?
Its z-score is 1.66.

How did the z-score turn out when `COCCn1nc2cc(C(=O)NCc3cc(C(F)(F)F)cc(C(F)(F)F)c3)ccc2c1OC` was run?
The z-score was -0.159.

`CCCN(CCC)c1nc(N)nc(-c2cc(Cl)ccc2OC)n1` was tested. Which z-score did it give?
The z-score was -0.195.

How did the z-score turn out when `CCC1(CC)C(=O)N(C)C(=O)NC1=Nc1ccc(OC)cc1` was run?
Its z-score is 0.156.

For `CC1(C)C(=O)C2(C(=O)NCc3ccccc3)CCC1C2` (centres undefined), which z-score is on record?
The z-score was -0.176.

For `COc1ccc(OC)c(NC(=O)COC(=O)c2c3c(nc4ccccc24)CCCC3)c1`, which z-score is on record?
The z-score was 0.0716.

How did the z-score turn out when `O=C1Nc2ccccc2C1(O)Cc1ccncc1` (centres undefined) was run?
Its z-score is -0.322.

With `COc1ccc(NC(=O)c2cccc(S(=O)(=O)N(C)c3ccccc3)c2)cn1` as the compound, how does the z-score read?
Its z-score is -0.426.

With `CCOc1ccc(C(C(=O)NC2CCCCC2)N(C(=O)Cc2cccs2)c2ccc(-n3cnnn3)c(OC)c2)cc1` (centres undefined) as the compound, how does the z-score read?
Its z-score is -0.304.

With `CN1CCN(S(=O)(=O)c2ccc3c(c2)OCCO3)CC1` as the compound, how does the z-score read?
The z-score was -0.129.

How did the z-score turn out when `COCCCn1cc(C(=O)c2cc(OC)ccc2OCC(=O)Nc2cc(C)on2)cc(C#N)c1=O` was run?
Its z-score is -0.0248.

With `O=C(c1ccc([N+](=O)[O-])cc1)N(Cc1ccc(Br)cc1)N1C(=O)CCCC1=O` as the compound, how does the z-score read?
Its z-score is -1.21.

For `C=C(C)Cn1c(=O)c(NC(=O)c2ccccc2)c2n(c1=S)CCC2`, which z-score is on record?
The z-score was -0.467.

With `COc1ccc(CCCC(=O)Nc2ccc(F)cc2)cc1` as the compound, how does the z-score read?
Its z-score is -1.57.

With `O=C(O)C1CCCCC1C(=O)NCCCn1ccnc1` (centres undefined) as the compound, how does the z-score read?
Its z-score is -0.0282.

For `N#Cc1cc(-c2ccccc2)nn1-c1ccccc1`, which z-score is on record?
Its z-score is -0.202.

How did the z-score turn out when `CCOC(=O)C1CCN(C(=O)CCCCn2c(=O)[nH]c3ccccc3c2=O)CC1` was run?
The z-score was -0.985.

`CC(=O)N=C(N)Sc1nc2ccccc2[nH]1` was tested. Which z-score did it give?
The z-score was -0.0311.

For `CCC1Cc2c(nc3c4c(nc(N5CCOCC5)c(C#N)c24)NC(C)=N3)O1` (centres undefined), which z-score is on record?
The z-score was -0.387.

`COc1ccc(NC(=O)Nc2ncn(Cc3cccc(C(F)(F)F)c3)n2)cc1OC` was tested. Which z-score did it give?
Its z-score is 0.0572.

For `C=CCOc1nc2c(c(=O)n(C)c(=O)n2C)n1C`, which z-score is on record?
The z-score was -0.13.

For `Cc1ccc(S(=O)(=O)N[C@H](C(=O)N2CCC3(O)CCCCC3C2)c2ccccc2)cc1` (some centres undefined), which z-score is on record?
The z-score was 0.0721.

For `Cc1ccc(-n2c(O)c(/C=N/Nc3ccc(S(=O)(=O)N4CCOCC4)cc3[N+](=O)[O-])c3ccccc3c2=O)c(C)c1`, which z-score is on record?
The z-score was -0.182.

With `CC1(C)CNC(=O)c2sc(NC(=O)CN3CCOCC3)nc2C1` as the compound, how does the z-score read?
The z-score was -0.297.

Which z-score does the source give for `CCOCCCNc1nc2c([nH]1)c(=O)n(C)c(=O)n2C` here?
The z-score was 0.00722.

For `CCCc1ccc(OCC(O)CN2CCN(c3ccccc3)CC2)cc1` (centres undefined), which z-score is on record?
Its z-score is -0.0136.

How did the z-score turn out when `C=CCn1c(SCC(=O)Nc2ccc3c(c2)OCO3)nnc1-c1ccccc1O` was run?
Its z-score is -0.86.

With `Oc1oc(-c2ccccc2)nc1/C=N/c1nccs1` as the compound, how does the z-score read?
The z-score was 1.54.

Which z-score does the source give for `COc1ccc(-n2c(=O)c3c4c(sc3n3c(C)nnc23)CCCC4)cc1` here?
The z-score was -0.147.

With `O=S(=O)(Nn1cnnc1)c1ccccc1` as the compound, how does the z-score read?
Its z-score is -0.313.

For `CN(CC(=O)N1CCN(c2ccccc2F)CC1)S(=O)(=O)c1cnc[nH]1`, which z-score is on record?
Its z-score is -0.124.

For `COc1ccc(-c2nnc(NC(=O)C3CCCO3)s2)cc1` (centres undefined), which z-score is on record?
Its z-score is -0.0181.

Which z-score does the source give for `Nc1ccc(-c2ccc(N)cc2C(F)(F)F)c(C(F)(F)F)c1` here?
Its z-score is -1.22.

For `O=C(c1ccco1)N1CCN(C(=O)N2c3ccccc3Sc3ccccc32)CC1`, which z-score is on record?
Its z-score is -0.17.

Which z-score does the source give for `CCc1ccc(NC(=O)CSC2=C(C#N)C(c3ccc4c(c3)OCO4)CC(=O)N2)cc1` (centres undefined) here?
Its z-score is 0.13.

Which z-score does the source give for `COCc1nnc(NC(=O)CCC2CCCCC2)s1` here?
The z-score was 0.558.

For `O=C(NNC(=O)C1CCCN(c2ncccn2)C1)c1ccc(F)cc1` (centres undefined), which z-score is on record?
The z-score was 0.22.

For `O=C(O)CCCC(=O)Nc1nc(-c2ccc(F)cc2)cs1`, which z-score is on record?
The z-score was -0.5.

With `CCOC(=O)C1CCC2(CC1)C(C#N)=C(N)Oc1n[nH]c(C)c12` (centres undefined) as the compound, how does the z-score read?
Its z-score is 0.0849.

With `Cc1ccc(Sc2cc(Cl)nc(N)n2)cc1` as the compound, how does the z-score read?
Its z-score is -0.159.

For `S=c1[nH]nc(Cc2c[nH]c3ccccc23)o1`, which z-score is on record?
The z-score was 0.241.

With `O=C(c1cccc(F)c1)N1CCN(C(=O)c2cc3ncc(Br)cn3n2)CC1` as the compound, how does the z-score read?
Its z-score is -0.249.

How did the z-score turn out when `Cc1ccc(CN(Cc2ccco2)S(=O)(=O)c2ccc(S(=O)(=O)NCC3CCCO3)cc2)cc1` (centres undefined) was run?
The z-score was -0.00067.

How did the z-score turn out when `Cc1c(C=O)c2ccccn2c1C(=O)c1ccncc1` was run?
The z-score was -0.188.

How did the z-score turn out when `CC(C)CNC(=O)c1c2c(nc3ccccc13)-c1ccccc1CC2` was run?
Its z-score is -0.265.

`Cc1ccc(NC(NC(=O)c2ccccc2[N+](=O)[O-])C(Cl)(Cl)Cl)cc1` (centres undefined) was tested. Which z-score did it give?
The z-score was -0.274.

`Cc1ccc(SCc2nc(-c3ccccn3)no2)cc1` was tested. Which z-score did it give?
Its z-score is -0.318.

For `CCCS(=O)(=O)N1CCCC(C(=O)N2CCN(C(=O)OCC)CC2)C1` (centres undefined), which z-score is on record?
The z-score was -0.0863.

How did the z-score turn out when `O=C(Nc1cccc2ccccc12)C1CCN(C(=O)NCc2ccccc2)CC1` was run?
The z-score was 0.124.

Which z-score does the source give for `CCCC(=O)O[C@@H]1C[C@@H](C)N(C(=O)c2ccccc2)c2ccc(C)cc21` here?
Its z-score is -0.411.

Which z-score does the source give for `COc1c(C)cccc1C(=O)Nc1ccc(CN2CCOCC2)cc1` here?
Its z-score is -0.359.

Which z-score does the source give for `CCc1ccc(OCC(=O)Nc2ccc(S(=O)(=O)N3CCCC3)cc2)c(Br)c1` here?
The z-score was -0.0349.

For `Cc1ccc(S(=O)(=O)c2nc(NC3CCS(=O)(=O)C3)sc2Cl)cc1` (centres undefined), which z-score is on record?
Its z-score is -0.0674.

With `O=C1/C(=C/c2cccs2)N=C(c2cccs2)N1Nc1ccccc1` as the compound, how does the z-score read?
Its z-score is -0.339.

With `CCCCNCC(=O)Nc1ccc(NC(=O)CNCCCC)cc1` as the compound, how does the z-score read?
The z-score was -0.169.

Which z-score does the source give for `CCOC(=O)c1cc(-c2ccc(OC(F)F)cc2)nc2nc(SC)[nH]c(=O)c12` here?
The z-score was -0.208.

`CCOC(=O)c1c(C)[nH]c(C(=O)OCC(=O)Nc2cc(C)c(Cl)cc2OC)c1C` was tested. Which z-score did it give?
Its z-score is -0.365.

How did the z-score turn out when `CCOC(=O)C1=C(C)NC2=C(C(=O)CC(C)(C)C2)C1c1ccc2c(c1)CCCN2C` (centres undefined) was run?
Its z-score is -0.347.

How did the z-score turn out when `O=C(NC(NC1CCS(=O)(=O)C1)C(=O)c1cccs1)c1ccccc1` (centres undefined) was run?
The z-score was -0.231.
